Source: ChEMBL document CHEMBL1157539, “Thousands of chemical starting points for antimalarial lead identification” (Nature, 2010)
Several values for one entry are separate records, joined by “and”; a condition that tells them apart may be missing. Equal entries are not always repeated. In all, about 13,000 compounds were measured (“IFI”: median about 4, highest 2% from about 17 on). This is one part of the list.

assay: GSK_TCMDC: Inhibition Frequency Index (IFI). The number of non-kinase HTS assays where a compound showed > 50 % inhibition, expressed as a percentage of the number of such assays in which the compound was tested (-0 is zero); format: functional

In order of falling IFI:
1. COc1cc(NC(=O)c2nn(CCCN3CCC4(CC3)C(=O)NCN4c3ccccc3)cc2-c2ccc(Cl)c(Cl)c2)cc(OC)c1OC  15.4%
2. CO/C(=C\C=C\c1cc2cc(Cl)c(Cl)cc2[nH]1)C(=O)N[C@H]1CN2CCC1CC2  13%
3. CC(Cc1ccc(SC(C)C)cc1)NCC(O)c1cccc(Cl)c1 (stereo not drawn)  10.1%
4. CC(C)CNCc1ccc(-c2cccc(CN(C(=O)CCC3CCCC3)C3CCN(Cc4ccccc4)CC3)c2)cc1  9.29%
5. COc1cccc(C2(C)CCN(CCCCNC(=O)c3ccc(NC(=O)c4ccc(Cl)cc4)cc3)CC2)c1  9.01%
6. CC[C@H]1CN2CC[C@H]1C[C@H]2[C@H](O)c1cc(-c2cccc(Cl)c2)nc2ccc(OC)cc12  8.97%
7. CC[C@H]1CN2CC[C@H]1C[C@H]2[C@H](O)c1cc(-c2ccc(C)cc2)nc2ccc(OC)cc12  8.72%
8. Cc1ccc(C[C@@H](C)NC[C@H](O)c2cccc(C(F)(F)F)c2)cc1  8.7%
9. O=C(COc1ccc(Cl)cc1)N1CCC(CN2CCC(c3c[nH]c4ccccc34)CC2)CC1  8.51%
10. O=C(/C=C/c1ccc(Cl)c(Cl)c1)N1CCC2CC(N3CCC(c4c[nH]c5ccccc45)CC3)CCC2C1 (stereo not drawn)  7.19%
11. O=C(/C=C/c1ccccc1Cl)NC1CCC(CN2C3CCC2CC(c2c[nH]c4ccccc24)C3)CC1 (stereo not drawn)  6.38%
12. CCCc1c(C(=O)NC2CCC(CN3CCC(c4c[nH]c5ccccc45)CC3)CC2)cnn1-c1ccccc1 (stereo not drawn)  6.38%
13. CC(Cc1ccc(S(=O)(=O)N(C(C)C)C(C)C)cc1)NCC(O)c1cccc(C(F)(F)F)c1 (stereo not drawn)  6.29%
14. CCCCCC(C)C(C)c1cc(O)c2c(c1)OC1(C(C)C)CC(O)C(C)C2C1 (stereo not drawn)  5.71%
15. O=C(/C=C/c1ccc2ccccc2c1)NC1CCC(CN2CCC(c3c[nH]c4ccccc34)CC2)CC1 (stereo not drawn)  4.23%
16. COc1cccc(C(=O)C2CC2CN2CC=C(c3c(C)[nH]c4ccccc34)CC2)c1 (stereo not drawn)  3.74%
17. CC1(CCCCN2CC=C(c3c[nH]c4ccccc34)CC2)C(=O)Nc2ccccc21 (stereo not drawn)  3.08%
18. O=C(/C=C/c1ccc(Cl)c(Cl)c1)NC1CCC(N2CCC(c3c[nH]c4ccc(O)cc34)CC2)CC1 (stereo not drawn)  2.96%
19. COc1ccc(C2CNCc3c2cc(OC)c(OC)c3Cl)cc1 (stereo not drawn)  2.94%
20. O=C(/C=C/c1ccc(Cl)c(Cl)c1)Nc1cccc(CN2CCC(c3c[nH]c4ccc(O)cc34)CC2)c1  2.88%
21. COC(C(=O)OCCC1CCCN1C)(c1ccccc1)c1ccccc1 (stereo not drawn)  2.19%
22. O=C(NC1CCC(CN2CCC(c3c[nH]c4ccccc34)CC2)CC1)c1cc(-c2ccccc2Cl)oc1C(F)(F)F (stereo not drawn)  0.68%

In the case of `O=C(/C=C/c1cccc2ccccc12)NC1CCC(CN2CCC(c3c[nH]c4ccccc34)CC2)CC1` (stereo not drawn), the IFI is reported as 6.43% and 5.67%.
